The least precise scores are not listed. Two further conditions of the source, in which the scores hardly spread, are not listed. Read del as a deletion of the residues named and ins as an insertion between two positions. For part of these data: How much ogerin was present is not stated here.
B1: GPR68, Q15743 (parent)
chain: MGNITADNSSMSCTIDHTIHQTLAPVVYVTVLVVGFPANCLSLYFGYLQIKARNELGVYLCNLTVADLFYICSLPFWLQYVLQHDNWSHGDLSCQVCGILLYENIYISVGFLCCISVDRYLAVAHPFRFHQFRTLKAAVGVSVVIWAKELLTSIYFLMHEEVIEDENQHRVCFEHYPIQAWQRAINYYRFLVGFLFPICLLLASYQGILRAVRRSHGTQKSRKDQIQRLVLSTVVIFLACFLPYHVLLLVRSVWEASCDFAKGVFNAYHFSLLLTSFNCVADPVLYCFVSETTHRDLARLRGACLAFLTCSRTGRAREAYPLGAPEASGKSGAQGEEPELLTKLHPAFQTPNSPGSGGFPTGRLA

Assays:
[1] = variants of: B1; test: cAMP reporter score (Enrich2 score, wild type = 0); higher = more signal; HEK293T, FACS bins
[2] = variants of: B1; test: surface expression score (Enrich2 score, wild type = 0); higher = more signal; HEK293T, FACS bins

Variant | cAMP reporter score ([1]; pH 5.5) | cAMP reporter score ([1]; pH 6.5, modulator: ogerin) | surface expression score [2] | cAMP reporter score ([1]; pH 6) | cAMP reporter score ([1]; pH 6, modulator: ogerin)
C72_S73insGSG | -1.16 | -0.985 | -3.85 |  | 
S73A | 0.234 | 0.748 | -0.941 | 0.031 | 0.311
S73C | 0.209 | 0.334 | 0.58 | 2.21 | 0.395
S73D | 0.421 | -0.928 |  |  | -0.748
S73E | -1.21 | -1.84 | -2.16 | -1.22 | -1.73
S73F | -0.901 | -0.688 | -0.527 | -0.69 | -0.885
S73G | 0.476 | -0.695 | 0.078 |  | 0.388
S73H | -0.713 | -0.942 | -1.77 | -0.009 | -1.16
S73I | -1.64 | -1.41 | -1.42 | -1.13 | -2.47
S73K | -1.18 |  |  | -0.255 | 
S73L | -1.06 | -1.46 | -0.485 |  | -1.53
S73M | -0.428 | -0.61 |  | -1.09 | 
S73P | -0.736 | -0.411 | -0.664 | -0.384 | -0.755
S73Q | -0.88 | -1.9 | -1.37 | -0.654 | -1.29
S73R | -0.421 | -0.395 | -0.283 |  | -0.694
S73T | 0.493 | 0.754 | 1.25 | -0.389 | 0.345
S73V | 0.174 | -0.824 | -2.42 | -0.267 | -0.93
S73W | -1.41 | -1.08 | -0.788 | -1.19 | -1.2
S73Y | -1.81 | -0.99 | -0.814 | -0.662 | -0.88
L74_F76del | -1.24 | -1.33 | -3.36 |  | -1.29
F76_L78del | -1.38 | -0.754 | -2.8 | -0.509 | -2.16
F76_W77insG | -0.827 |  | -1.38 | -0.506 | -1.04

Variant | cAMP reporter score ([1]; pH 5.5) | cAMP reporter score ([1]; pH 6.5, modulator: ogerin) | surface expression score [2] | cAMP reporter score ([1]; pH 6) | cAMP reporter score ([1]; pH 6, modulator: ogerin)
W77_L78insGSG | -0.846 | -0.162 |  | -0.456 | -1.19
L78_Q79del | -1.1 | -0.391 | -0.19 | -0.925 | -0.482
Q79_Y80insG | -0.735 | 0.095 | -0.591 | -0.459 | -1.9
Y80_V81insGS | -1.73 | -0.903 | -1.13 | -1.42 | -1.58
Y80_V81insGSG | -1.91 | -1.75 | -2.11 |  | -1.04
V81_L82insG | -0.813 | -0.968 | -0.147 | -0.212 | -1.49
V81_L82insGS | -1.79 | -0.87 | -0.92 | -1.36 | -1.43
V81_Q83del | -1.28 | -0.398 | 0.038 | 0.002 | -0.909
L82A | -0.851 | -0.639 | -0.188 | -1.14 | -1
L82C | -0.655 | -0.772 | -1.25 | -0.803 | 
L82D | -1.84 | -1.45 | -0.967 | -0.041 | -1.29
L82E | -0.005 | -0.305 | 0.242 |  | 0.174
L82F | -0.501 | -0.523 | -0.406 | -0.313 | -0.592
L82G | -0.672 | 0.252 | -0.881 | 0.286 | -0.189
L82H | -0.413 | -0.777 | -0.661 |  | 
L82I | 1.74 | 1.59 | 1.39 |  | 1.27
L82K | -0.831 | 0.868 | 1.44 | -0.134 | -0.685
L82M | -0.841 | -1.04 | -1.36 | -0.086 | -1.23
L82N | -0.748 | -1.16 | 0.258 | -1.1 | -0.731
L82P | -0.697 | -0.614 | -0.353 | -0.425 | -0.882
L82R | -0.959 | -0.331 | -0.319 | -0.845 | -0.911
L82T | -0.199 |  | 0.085 | -1.12 | -0.524

Variant | cAMP reporter score ([1]; pH 5.5) | cAMP reporter score ([1]; pH 6.5, modulator: ogerin) | surface expression score [2] | cAMP reporter score ([1]; pH 6) | cAMP reporter score ([1]; pH 6, modulator: ogerin)
L82V | -0.065 | -0.351 | 0.238 | -0.419 | -0.104
L82W | 0.145 | -0.595 | 1.58 | -0.548 | -0.287
L82Y | -0.765 | 0.099 | 1.7 | -1.11 | -0.245
L82_H84del | -0.795 | -1.32 | 0.9 | -1.1 | -1.69
L82_Q83insG | -1.48 | -2.29 | 0.805 | -2.06 | 
Q83_D85del | -0.953 | -0.67 | -0.4 | -0.69 | -1.78
Q83_H84del | -2.12 | -1.31 | -1.5 | -1.05 | -1.15
Q83_H84insGSG | -1.71 | -0.342 | 0.465 | -1.46 | -1.53
D85A | -1.46 | -1.07 | -0.03 | -0.95 | -0.616
D85C | -0.446 | 0.993 | -1.98 | -0.369 | 0.336
D85E | -0.289 | -0.625 | 1.38 | -0.149 | -0.558
D85F | 0.028 | -0.577 | -1.22 | -0.323 | 0.178
D85G | -0.111 | -0.346 | 0.725 | -0.485 | 0.335
D85H | -0.175 | 0.189 | -0.757 | 0.789 | -0.472
D85I | -1.43 | -0.731 | -2.08 | -0.97 | -0.898
D85K | -1.27 | -0.681 | 0.642 | -0.773 | -1.78
D85L | -0.917 | -0.615 | -2.22 | -1.07 | -0.776
D85M | -0.489 | -0.227 | -1.18 | -0.486 | -0.777
D85N | -0.15 | 1.1 | -0.854 | 0.052 | -0.045
D85P | -1.45 | -1.42 | 0.848 | -1.24 | -1.86

— the GPR68 mutational scans of Howard et al. (2025)
